# Publication PMC9911399, “Two distinct binding modes provide the RNA-binding protein RbFox with extraordinary sequence specificity”
# Where a chain is given by its changes, count along the chain named. The list shows a part of the results.
# T1: RBFOX1 RRM RbFoxmut (Fox-RRM*) (Homo sapiens, UniProt Q9NWB1 109-208, R118D;E147R;N151S;E152T)
# T1 sequence: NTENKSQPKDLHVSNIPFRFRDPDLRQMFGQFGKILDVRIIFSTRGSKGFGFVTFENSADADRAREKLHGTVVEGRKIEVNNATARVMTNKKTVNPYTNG
# B1: ACUCGCU (DNA:RNA)
# RNA: GGGAGACCGGAAUUCAGAUUGUCCACUCGCUUUAAAUCCCGUCGUAGCCACCA
# DNA 1: CAATCTGAATTCCGGTCTCCC
# DNA 2: TGGTGGCTACGACGGGATT
# B2: AUGCAGC (DNA:RNA)
# RNA: B1 RNA with C26U, U27G, G29A, C30G, U31C
# DNA 1: CAATCTGAATTCCGGTCTCCC
# DNA 2: TGGTGGCTACGACGGGATT
# B3: UUAGAUC (DNA:RNA)
# RNA: GGGAGACCGGAAUUCAGAUUGUCCUUAGAUCUUAAAUCCCGUCGUAGCCACCA
# DNA 1: CAATCTGAATTCCGGTCTCCC
# DNA 2: TGGTGGCTACGACGGGATT
# B4: UCCAAUA (DNA:RNA)
# RNA: B3 RNA with U26C, A27C, G28A, C31A
# DNA 1: CAATCTGAATTCCGGTCTCCC
# DNA 2: TGGTGGCTACGACGGGATT
# B5: CUUAUAU (DNA:RNA)
# RNA: B1 RNA with A25C, C26U, C28A, G29U, C30A
# DNA 1: CAATCTGAATTCCGGTCTCCC
# DNA 2: TGGTGGCTACGACGGGATT
# B6: CGCGAUA (DNA:RNA)
# RNA: B3 RNA with U25C, U26G, A27C, C31A
# DNA 1: CAATCTGAATTCCGGTCTCCC
# DNA 2: TGGTGGCTACGACGGGATT
# B7: CCGAGGC (DNA:RNA)
# RNA: B1 RNA with A25C, U27G, C28A, C30G, U31C
# DNA 1: CAATCTGAATTCCGGTCTCCC
# DNA 2: TGGTGGCTACGACGGGATT
# B8: UGCUGAU (DNA:RNA)
# RNA: B1 RNA with A25U, C26G, U27C, C28U, C30A
# DNA 1: CAATCTGAATTCCGGTCTCCC
# DNA 2: TGGTGGCTACGACGGGATT
# B9: UCACGCA (DNA:RNA)
# RNA: B1 RNA with A25U, U27A, U31A
# DNA 1: CAATCTGAATTCCGGTCTCCC
# DNA 2: TGGTGGCTACGACGGGATT
# B10: AGCGUUC (DNA:RNA)
# RNA: B3 RNA with U25A, U26G, A27C, A29U
# DNA 1: CAATCTGAATTCCGGTCTCCC
# DNA 2: TGGTGGCTACGACGGGATT
# B11: CGGGGAA (DNA:RNA)
# RNA: B1 RNA with A25C, C26G, U27G, C28G, C30A, U31A
# DNA 1: CAATCTGAATTCCGGTCTCCC
# DNA 2: TGGTGGCTACGACGGGATT
# B12: UCCUCUC (DNA:RNA)
# RNA: B3 RNA with U26C, A27C, G28U, A29C
# DNA 1: CAATCTGAATTCCGGTCTCCC
# DNA 2: TGGTGGCTACGACGGGATT
# B13: GUCGGUU (DNA:RNA)
# RNA: B3 RNA with U25G, A27C, A29G, C31U
# DNA 1: CAATCTGAATTCCGGTCTCCC
# DNA 2: TGGTGGCTACGACGGGATT
# B14: UAAGAUC (DNA:RNA)
# RNA: B3 RNA with U26A
# DNA 1: CAATCTGAATTCCGGTCTCCC
# DNA 2: TGGTGGCTACGACGGGATT
# B15: UCAUGAU (DNA:RNA)
# RNA: B1 RNA with A25U, U27A, C28U, C30A
# DNA 1: CAATCTGAATTCCGGTCTCCC
# DNA 2: TGGTGGCTACGACGGGATT
# B16: UCCAUUC (DNA:RNA)
# RNA: B3 RNA with U26C, A27C, G28A, A29U
# DNA 1: CAATCTGAATTCCGGTCTCCC
# DNA 2: TGGTGGCTACGACGGGATT
# B17: UAUGGCU (DNA:RNA)
# RNA: B1 RNA with A25U, C26A, C28G
# DNA 1: CAATCTGAATTCCGGTCTCCC
# DNA 2: TGGTGGCTACGACGGGATT
# B18: CUCUGUA (DNA:RNA)
# RNA: B3 RNA with U25C, A27C, G28U, A29G, C31A
# DNA 1: CAATCTGAATTCCGGTCTCCC
# DNA 2: TGGTGGCTACGACGGGATT
# B19: GGCCGGG (DNA:RNA)
# RNA: B1 RNA with A25G, C26G, U27C, C30G, U31G
# DNA 1: CAATCTGAATTCCGGTCTCCC
# DNA 2: TGGTGGCTACGACGGGATT
# B20: CACUUCC (DNA:RNA)
# RNA: B1 RNA with A25C, C26A, U27C, C28U, G29U, U31C
# DNA 1: CAATCTGAATTCCGGTCTCCC
# DNA 2: TGGTGGCTACGACGGGATT
# Target: T1, RBFOX1 RRM RbFoxmut (Fox-RRM*)
# Assay: EMSA; HiTS-Eq, 1 nM pool, 10 min; buffer printed only for the single-RNA assays: 10 mM Tris pH 7.5, 150 mM NaCl, 3.4 mM EDTA, 0.001% NP-40, 30 C
# Settings: tags: His6 N-terminal (pET28a); label: 5' 32P
# Procedure, shortened: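 Purified RbFox RRM (wild type or mutant) was equilibrated for 10 min in 50 µL with 1 nM of a 5′-radiolabelled pool of RNA with 7 randomized nucleotides, its flanks annealed to DNA oligonucleotides, across increasing protein concentrations. Free RNA was separated by 8% native PAGE, excised, reverse-transcribed, PCR-barcoded and sequenced on an Illumina HiSeq 2500. Relative association constants came from read-count changes of each variant against the control reaction, normalised to the cognate motif.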
row,Binder,binding signal
1,B1,0.0919 KA relative to UGCAUGU
2,B2,0.106 KA relative to UGCAUGU
3,B3,0.0647 KA relative to UGCAUGU
4,B4,0.0726 KA relative to UGCAUGU
5,B5,0.113 KA relative to UGCAUGU
6,B6,0.121 KA relative to UGCAUGU
7,B7,0.0957 KA relative to UGCAUGU
8,B8,0.0892 KA relative to UGCAUGU
9,B9,0.135 KA relative to UGCAUGU
10,B10,0.0948 KA relative to UGCAUGU
11,B11,0.107 KA relative to UGCAUGU
12,B12,0.0516 KA relative to UGCAUGU
13,B13,0.0998 KA relative to UGCAUGU
14,B14,0.0478 KA relative to UGCAUGU
15,B15,0.0721 KA relative to UGCAUGU
16,B16,0.0723 KA relative to UGCAUGU
17,B17,0.102 KA relative to UGCAUGU
18,B18,0.229 KA relative to UGCAUGU
19,B19,0.0661 KA relative to UGCAUGU
20,B20,0.0925 KA relative to UGCAUGU
